Data: PubChem BioAssay AID686978 (National Center for Advancing Translational Sciences (NCATS), 2013)
The whole screen tested about 420,000 compounds, of which about 64,000 (15%) were called active. The shares of active, inactive and inconclusive entries below differ from those in the screen. The call rests on the fitted dose curve; in most records, active means well fitted inhibition curve with a large enough effect; inconclusive means small, poorly fitted or top-dose-only effect; inactive means flat fitted curve, though single readings scatter. No potency is given beside an inconclusive call; the fits are too rough.

Assay: qHTS for Inhibitors of human tyrosyl-DNA phosphodiesterase 1 (TDP1): qHTS in cells in absence of CPT; further: nearly all actives have a fitted effect of over 55% in size
Details: DT40 Tdp1-/- hTDP1 cells, no CPT, ATP luminescence, 48 h; activity change, negative = growth inhibition: at 46.2 µM (top of the series) unless noted
Method in brief: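 Growth kinetics read by CellTiter-Glo luminescence after ≥48 hr at 37 °C. Cells: DT40 Tdp1-/- stably carrying human TDP1, 400 per well, compound exposure in the absence of CPT (DMSO vehicle).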
On the % scale 0 is the no-effect control and ±100 the full control effect; potency means the concentration at half of the fitted maximal effect; tags describe the fitted curve by direction and shape.

SMILES	activity change, negative = growth inhibition	Potency
O=C(NCc1ccccc1)C12CC3CC(CC(Cl)(C3)C1)C2	inactive: -23.8%	
NS(=O)(=O)c1ccc(SCc2ccccc2)nc1		inconclusive [inhibitor, single point]
COc1ccc(C)cc1NC(=O)CSc1nnc(COc2ccc(Cl)cc2)n1Cc1ccco1		inconclusive [inhibitor, single point]
O=C(CSc1nc2[nH]ncc2c(=O)n1-c1ccccc1)NCCc1ccccc1		inconclusive [inhibitor, single point]
COc1ccccc1N1CCN(C(=O)Nc2ccc(F)c(Cl)c2)CC1		inconclusive [inhibitor, single point]
O=C(Nc1cccnc1)c1ccc(Cl)c(Cl)c1		inconclusive [inhibitor, single point]
COc1ccccc1C(=O)N/C(=C\c1cn(C)c2ccccc12)C(=O)N1CCOCC1		inconclusive [inhibitor, single point]
COc1ccc(OCc2cc(C(=O)N3CCC(c4ccccc4)CC3)no2)c(Cl)c1		inconclusive [inhibitor, single point]
CCn1cc(C(c2ccccc2)C(C(C)=O)[N+](=O)[O-])c2ccccc21 (stereo not drawn)		inconclusive [inhibitor, partial curve]
Cc1sc2ncnc(N3CCCCC3C)c2c1C (stereo not drawn)		inconclusive [inhibitor, single point]
CCc1cccc(C)c1NC(=O)CCS(=O)(=O)c1cc(Br)cc2c1N(C(=O)C1CC1)CC2		inconclusive [inhibitor, single point]
CCCc1nn2c(=O)cc(COC(=O)c3cccc(NC(=O)c4cccs4)c3)nc2s1		inconclusive [inhibitor, single point]
Cc1ccc(/C=C(\C#N)C(=O)NC(C)c2ccccc2)o1 (stereo not drawn)	inactive: -3.26%	
COc1cccc(Cn2c(=O)cc(C)c3c(C)nn(C)c32)c1		inconclusive [inhibitor, single point]
CCn1c(=O)c(=O)[nH]c2cc(C(=O)NCc3ccc(F)cc3)ccc21	inactive: 1.02%	
C/C=C/c1ccc(OCc2cc(=O)n3cc(C)ccc3n2)c(OC)c1		active: 18.4 µM
COCCOC(=O)C1=C(C)NC(=O)NC1c1cc2c(cc1Br)OCO2 (stereo not drawn)	inactive: -5.22%	
Cc1cccc(OCC(=O)NCC(=O)N/N=C/c2cc(Br)cc(Br)c2O)c1		inconclusive [inhibitor, single point]
O=C(Cc1cccs1)N(CC1CCCO1)C1(C(=O)NC2CCCCC2)CCCCC1 (stereo not drawn)		inconclusive [inhibitor, partial curve, poor fit]
COc1cc(/C=N/NC(=O)c2cccc([N+](=O)[O-])c2)ccc1OC(=O)c1ccco1	inactive: -15.7%	
COC(=O)c1cc(=O)n(CCc2ccccc2)c(=Nc2ccc(F)cc2)s1		inconclusive [inhibitor, single point]
Clc1ccc2nc(COc3ccccc3)[nH]c2c1		inconclusive [inhibitor, single point]
O=C(CCCCn1c(=O)c2ccccc2n(CC(=O)Nc2cccc(C(F)(F)F)c2)c1=O)NCc1ccc2c(c1)OCO2		inconclusive [inhibitor, single point]

SMILES	activity change, negative = growth inhibition	Potency
Cc1ccc(-c2nc(CCNC(=O)c3ccco3)cs2)cc1		inconclusive [inhibitor, single point]
COc1ccc(Cl)cc1NC(=S)N(Cc1cccnc1)Cc1ccco1		inconclusive [inhibitor, single point]
COc1cc(NC(=O)C2CCCN(S(=O)(=O)c3ccc4c(c3)CCCN4C(C)=O)C2)cc(OC)c1 (stereo not drawn)	inactive: 3.53%	
Cc1ccc(NC(=O)CS(=O)c2ccccc2N)c(C)c1 (stereo not drawn)	inactive: 12.8%	
Cc1ccc(SCc2cn3ccccc3n2)cc1		inconclusive [inhibitor, single point]
COc1ccc(N2CCN(C(=O)c3cc(=O)c4cc(C)ccc4o3)CC2)cc1		inconclusive [inhibitor, single point]
CC1CCCCC1NC(=S)Nc1ccc(SC(F)F)cc1 (stereo not drawn)		inconclusive [inhibitor, single point]
CCN1/C(=C2\C(=O)N(C)C(=S)N2c2ccccc2)C=Cc2ccccc21		inconclusive [inhibitor, single point]
CC(C)Oc1ccc(C(=O)NC2=NCCS2)cc1	inactive: -15.6%	
Cc1c(C(=O)NCc2ccc(Cl)cc2)sc2nc3n(c(=O)c12)CCCCC3		inconclusive [inhibitor, single point]
CN1C(=O)N(C)C2C1N(CN1CCCCC1)C(=O)N2CN1CCCCC1 (stereo not drawn)		inconclusive [inhibitor, single point]
Cc1c(Cl)cccc1NC(=O)Cn1c(=O)n(Cc2ccco2)c(=O)c2sc3ccccc3c21		inconclusive [inhibitor, full curve, poor fit]
Cc1ccc(C2=NOC(C)(c3nnc(-c4ccccc4)o3)C2)cc1 (stereo not drawn)	inactive: -13%	
CCNC(=O)c1c(NC(=O)c2nc(SC)ncc2Cl)sc2c1CCCC2		inconclusive [inhibitor, full curve, poor fit]
CCN1C(=O)/C(=C2\SC(=S)N(NC(=O)c3ccccc3O)C2=O)c2ccccc21	inconclusive: -27.2% [inhibitor]	
CCCCCN(C(=O)CCC(=O)OCC(=O)N1CCCCC1C)c1c(N)n(CCCC)c(=O)[nH]c1=O (stereo not drawn)	inactive: 10.6%	
CCOC(=O)C(=O)NCC(c1cccs1)S(=O)(=O)c1ccc(Cl)cc1 (stereo not drawn)	inactive: 9.59%	
Cc1ccc(Cl)cc1NC(=O)CCS(=O)(=O)c1cccc2nonc12		inconclusive [inhibitor, single point]
N#CC1=CC2CN(Cc3ccccc3)C1C1C(=O)N(c3ccccc3)C(=O)C21 (stereo not drawn)		inconclusive [inhibitor, single point]
Cc1ccc(S(=O)(=O)c2c(C)cc(C)nc2Cl)cc1	inactive: 3.41%	
Cc1ccc(-n2cccc2C(=S)N=P(N(C)C)(N(C)C)N(C)C)cc1		active: 1.64 µM
O=C(Cc1ccccc1)Nc1ccc(C(=O)NCC2COc3ccccc3O2)cc1 (stereo not drawn)	inconclusive: -33.7% [inhibitor]	
COc1ccccc1CNC(=O)C(Cc1ccccc1)NC(=O)c1ccccc1 (stereo not drawn)		inconclusive [inhibitor, single point]

SMILES	activity change, negative = growth inhibition	Potency
CN(C)CC#Cc1cncc(C(=O)NNC(=O)Nc2ccc(Cl)cc2)c1	inactive: 12%	
O=C(NCCc1ccccc1)C(=O)NCC(c1ccco1)S(=O)(=O)c1cccs1 (stereo not drawn)		inconclusive [inhibitor, single point]
COc1ccc(CCNC(=O)C(=O)NCC2CCCN2S(=O)(=O)c2cccs2)cc1OC (stereo not drawn)		inconclusive [inhibitor, single point]
COc1ccc(-c2nc(CSc3nncn4c3cc3oc(C)cc34)c(C)o2)cc1		inconclusive [inhibitor, single point]
COc1ccccc1N(C)c1cc2c(c3c1ccn3C)C1CCC2C1 (stereo not drawn)		inconclusive [inhibitor, single point]
O=C(CCCN1C(=O)c2cccc3cccc(c23)C1=O)NC1CCS(=O)(=O)C1 (stereo not drawn)	inactive: -8.83%	
CSc1ccccc1C(=O)Nc1ccccc1C(=O)NC(C)C		inconclusive [inhibitor, single point]
COc1ccc(C(=O)O)cc1NCc1cccnc1	inactive: -6.47%	
c1csc(CNc2ncnc3nc[nH]c23)c1	inconclusive: -31.8% [inhibitor]	inconclusive [inhibitor, partial curve]
COc1cccc(NC(=O)Nc2nc(SC(C)(C)C)ns2)c1		inconclusive [inhibitor, partial curve]
COc1ccc2nc(NC(=O)c3ccc(NS(=O)(=O)c4cccs4)cc3)sc2c1		inconclusive [inhibitor, single point]
COc1ccc(OC)c(CCNC(=O)c2ccc3c(c2)c(C)c(C)n3Cc2ccccc2)c1		inconclusive [inhibitor, single point]
COc1cc(NC(=O)CN2C(=O)c3ccccc3Sc3ccc(C(=O)N4CCCC4)cc32)cc(OC)c1		inconclusive [inhibitor, single point]
CC(C)c1cc(Br)ccc1OCCCN1C(=O)NC(C)(C)C1=O		inconclusive [inhibitor, single point]
Cc1nn(C2CCS(=O)(=O)C2)c2nc(C3CC3)cc(C(=O)Nc3ccc(C(N)=O)cc3)c12 (stereo not drawn)	inactive: 0.934%	
CCOC(=O)c1ccccc1NC(=O)CN1CCCN(Cc2cc(C)ccc2C)S1(=O)=O		active: 20.6 µM
Cc1ccnc(NC(=S)N2CCN(c3cccc(C(F)(F)F)c3)CC2)c1		inconclusive [inhibitor, single point]
COc1ccccc1-n1c(SCC(=O)NC2CCCCC2)nc2c(c1=O)SCC2		inconclusive [inhibitor, single point]
CN(CC(=O)Nc1ccc2c(c1)OCCO2)S(=O)(=O)c1cccc2cccnc12	inconclusive: -33% [inhibitor]	
COc1ccc(OC)c(C(C(=O)NC2CCCCC2)N(C(=O)c2snc(C(N)=O)c2N)c2ccccc2OC)c1 (stereo not drawn)		inconclusive [inhibitor, partial curve]
COc1ccc(CCNC(=S)NC(=O)c2ccc(Br)cc2)cc1OC		inconclusive [inhibitor, partial curve, poor fit]
